# Source: PubChem BioAssay AID463173 (ICCB-Longwood Screening Facility, Harvard Medical School, 2010)
# About 1,700 (3.3%) of roughly 52,000 compounds were called active. Cut-off read from the data, not from the text of the source: active = survival mostly below about 52% (no sharp cut-off); inactive = mostly above about 56%. The list shows a part of the results.
# System: Wild type
# Assay: S. aureus survival, RN4220 and DeltatarO strains – OD600, teichoic acid synthesis inhibitors, primary screen (AID 463173)
# Conditions: S. aureus RN4220 wild type/DeltatarO growth, OD600, 18 h, stronger effect = lower value, screened at 18.75 µg/mL (by protocol)
row,Structure (SMILES),survival
1,O=C(CC1CCCCC1)N1CCN(c2ccccc2)CC1,inactive: 102%
2,Cc1ccc(S(=O)(=O)N2CCCc3cc(NS(=O)(=O)c4ccc(F)cc4)ccc32)cc1,inactive: 81%
3,CN(C)c1ccc(CNC(=O)C2CCN(S(=O)(=O)c3ccc4c(c3)oc(=O)n4C)CC2)cc1,inactive: 87%
4,COc1cccc(NC(=O)Cn2c(=O)n(Cc3ccc(C(=O)NCc4ccc5c(c4)OCO5)cc3)c(=O)c3ccccc32)c1,inactive: 103%
5,CC(=O)Nc1ccc(Oc2ccccc2)cc1,inactive: 102%
6,CCc1ccc(-c2cc(C)no2)cc1S(=O)(=O)NCc1ccco1,inactive: 76%
7,CC1=CC(C)C2(COC(=O)Nc3ccccc3)COC(C)C1C2C (stereo not drawn),inactive: 128%
8,CCC(Oc1ccc(F)cc1)C(=O)Nc1nc2c(s1)CCCC2 (stereo not drawn),inactive: 76%
9,COc1ccc(C(=O)N2c3nc(-c4ccco4)nn3C3(CCCCC3)[C@@H]3CCCC[C@@H]32)cc1OC,inactive: 81%
10,O=C(NC1CCCCC1)c1ccc(Cn2c(SCc3ccccc3)nc3cccnc32)cc1,inactive: 82%
11,O=C(Nc1ccc(F)cc1)c1oc2ccccc2c1NC(=O)C1CCCCC1,inactive: 14%
12,Cc1cccc(C(=O)N2CCCCC2CCN2CCCCC2)c1 (stereo not drawn),inactive: 86%
13,CC(=O)N(C(C)=O)c1ccc(C)cc1,inactive: 104%
14,COCCCn1c(=O)c2sccc2n2c(CCCC(=O)Nc3ccc(F)c(F)c3)nnc12,inactive: 81%
15,Cc1ccc2nc(NC(=O)c3ccc(S(=O)(=O)N4CCCc5ccccc54)cc3)sc2c1,inactive: 148%
16,Nc1c(C(=O)Nc2cccc(F)c2)sc2nc(-c3cccs3)ccc12,inactive: 84%
17,COc1ccc(CNC(=O)CCC2N=C3c4ccccc4N=C(SCc4ccc(F)cc4)N3C2=O)cc1 (stereo not drawn),inactive: 82%
18,O=C(C1CCCCC1)N(Cc1cccnc1)c1nc2c(F)cc(F)cc2s1,inactive: 92%
19,COc1ccc(OC)c(NC(=O)c2c(NCc3ccc(OC)c(OC)c3)sc3c2CCC(C)C3)c1 (stereo not drawn),inactive: 73%
20,CCN1CCOC(=O)C1CC(=O)Nc1ccc(C)c(Cl)c1 (stereo not drawn),inactive: 42%

row,Structure (SMILES),survival
1,Cn1c(=O)c2c(n(C)c1=O)=NC1(CCCCC1)N=2,inactive: 101%
2,Cc1cc(C)nc(NS(=O)(=O)c2ccc(NC(=O)c3cc(=O)c4ccc(C)c(C)c4o3)cc2)n1,inactive: 91%
3,CN1CCN(C2(CNC(=O)c3ccc([N+](=O)[O-])cc3)CCCCC2)CC1,inactive: 108%
4,CCCc1c(C)nc(N)c(C#N)c1-c1ccc(OC)c(OC)c1,inactive: 101%
5,Cc1ccccc1-c1nc2scc(CCNC(=O)C(=O)Nc3ccc(F)cc3F)n2n1,active: -4%
6,O=C(CSc1nc2c([nH]c3ccccc32)c(=O)n1-c1ccccc1)c1ccc(Cl)cc1,inactive: 76%
7,C=Cc1ccc(Cn2c(C(=O)O)c(CNCCc3ccccc3)c3ccc(C)cc32)cc1,inactive: 69%
8,COc1cc(NS(=O)(=O)c2ccc3[nH]c4c(c3c2)CCCC4)cc(OC)c1OC,inactive: 129%
9,CCCn1c(CCC(=O)Nc2cccc(C)c2C)nc2cccnc21,inactive: 123%
10,Nc1c(C(=O)NCCc2ccccc2)nnn1CC(=O)Nc1ccc(Cl)cc1,inactive: 75%
11,Cc1ccccc1OCCCCn1c(C2CC(=O)N(c3ccccc3Cl)C2)nc2ccccc21 (stereo not drawn),inactive: 59%
12,Cc1ccc(Nc2c(-c3ccc(N4CCOCC4)cc3)nc3c(C)cccn23)cc1,inactive: 83%
13,CCN(CC)/C(=N/OCc1ccc(Cl)cc1Cl)c1nonc1N,inactive: 100%
14,CCOC(=O)C1CCCN(c2c(C(=O)c3ccc(C)cc3)cnc3ccc(OCC)cc23)C1 (stereo not drawn),active: 2%
15,COc1ccc(CC(=O)Nc2ccc3nc(Nc4cccc(Cl)c4)cc(C)c3c2)cc1,inactive: 88%
16,CC1(c2ccc(Cl)cc2Cl)OCC(Cn2cncn2)O1 (stereo not drawn),inactive: 114%
17,COCCn1c(SCC(=O)Nc2cccc(C)c2C)nc2c(oc3ccccc32)c1=O,inactive: 123%
18,Cc1cc(-c2ccc(S(=O)(=O)Nc3cc(Cl)ccc3C)s2)on1,inactive: 134%
19,COc1ccc(CCNC(=O)c2cc3c(-c4ccc(OC)c(OC)c4)nn(C)c3s2)cc1OC,inactive: 103%
20,Cc1oc2ncn(C)c(=O)c2c1C(=O)N(Cc1ccccc1)C(C)C,inactive: 99%

row,Structure (SMILES),survival
1,Cc1ccc(Cl)cc1N1CCN(C(=O)c2ccc(CS(=O)(=O)c3ccc(Br)cc3)o2)CC1,inactive: 84%
2,Cc1cc(C)nc(SCCC(=O)N(C)C)n1,inactive: 108%
3,Cc1ccc(Cl)cc1N1CCN(C(=O)CCn2c(=O)c3cccn3c3cccnc32)CC1,inactive: 37%
4,CCOC(=O)c1c(C)[nH]c(CCC(=O)NCc2cccc(OC)c2)c1C,inactive: 68%
5,Cc1oc2ccc(O)c(CN3CCCCC3C)c2c1C(=O)Nc1ccccc1 (stereo not drawn),inactive: 88%
6,O=C(CCc1ccccc1)N1CCc2c([nH]c3ccccc23)C1c1ccc(Cl)cc1 (stereo not drawn),inactive: 70%
7,COc1ccc(C(CNC(=O)Cc2ccc(Cl)cc2)N2CCOCC2)cc1 (stereo not drawn),inactive: 78%
8,O=C(CSc1nc(=O)n(CCN2CCOCC2)c2c1CCC2)Nc1cccc(Cl)c1,inactive: 80%
9,O=C(CC(c1cccs1)N1Cc2ccccc2C1=O)Nc1ccc(F)cc1F (stereo not drawn),inactive: 65%
10,Cc1cccc(CC(=O)NC2CC(=O)N(c3ccccc3)C2)c1 (stereo not drawn),active: -6%
11,Cc1ccc(O)c(NC(=O)c2cc(-c3ccc(F)cc3)on2)c1,inactive: 78%
12,Cc1cc2c(cc3c(SCc4cccc(F)c4)nnc(C)n32)o1,inactive: 102%
13,Cc1cccc(C(=O)N2CCC(N3CCN(Cc4ccc(F)cc4)C(=O)C3=O)CC2)c1,inactive: 110%
14,Cc1ccc(C2=CC(c3ccc(Cl)cc3)n3nc(-c4ccc(C)cc4)nc3N2)cc1 (stereo not drawn),active: 1%
15,CC(C)c1ccc(C2c3c(oc4ccc(Cl)cc4c3=O)C(=O)N2CCCN2CCOCC2)cc1 (stereo not drawn),inactive: 93%
16,COc1cc(NC(=O)CN2C(=O)C(c3ccc(Cl)cc3)=NC23CCCCC3)cc(OC)c1,inactive: 84%
17,COc1ccc(NC(=O)CCc2nc3cccnc3n2-c2ccccc2)cc1Cl,inactive: 83%
18,Cc1ccccc1CSCCNC(=O)C1CCN(S(=O)(=O)Cc2ccccc2)CC1,inactive: 109%
